Measured values: PubChem BioAssay AID588591 (National Center for Advancing Translational Sciences (NCATS), 2011)
Out of some 390,000 compounds screened, about 4,700 (1.2%) were called active. Inconclusive results, whose numbers are uncertain, are shown with a selection of clear calls. The call rests on the fitted dose curve; in most records, active means well fitted inhibition curve with a large enough effect; inconclusive means small, poorly fitted or top-dose-only effect, or another doubt; inactive means no such curve, though single readings can be large or run the other way. Potencies of inconclusive entries are doubtful fits and often do not repeat.

target: DNA polymerase eta (Homo sapiens) (UniProt Q9Y253); assay: qHTS for Inhibitors of Polymerase Eta; conditions: recombinant Pol eta, fluorescent DNA replication assay; series mostly up to 114 µM
Sequence of UniProt Q9Y253 (Q9Y253 whole entry, looked up): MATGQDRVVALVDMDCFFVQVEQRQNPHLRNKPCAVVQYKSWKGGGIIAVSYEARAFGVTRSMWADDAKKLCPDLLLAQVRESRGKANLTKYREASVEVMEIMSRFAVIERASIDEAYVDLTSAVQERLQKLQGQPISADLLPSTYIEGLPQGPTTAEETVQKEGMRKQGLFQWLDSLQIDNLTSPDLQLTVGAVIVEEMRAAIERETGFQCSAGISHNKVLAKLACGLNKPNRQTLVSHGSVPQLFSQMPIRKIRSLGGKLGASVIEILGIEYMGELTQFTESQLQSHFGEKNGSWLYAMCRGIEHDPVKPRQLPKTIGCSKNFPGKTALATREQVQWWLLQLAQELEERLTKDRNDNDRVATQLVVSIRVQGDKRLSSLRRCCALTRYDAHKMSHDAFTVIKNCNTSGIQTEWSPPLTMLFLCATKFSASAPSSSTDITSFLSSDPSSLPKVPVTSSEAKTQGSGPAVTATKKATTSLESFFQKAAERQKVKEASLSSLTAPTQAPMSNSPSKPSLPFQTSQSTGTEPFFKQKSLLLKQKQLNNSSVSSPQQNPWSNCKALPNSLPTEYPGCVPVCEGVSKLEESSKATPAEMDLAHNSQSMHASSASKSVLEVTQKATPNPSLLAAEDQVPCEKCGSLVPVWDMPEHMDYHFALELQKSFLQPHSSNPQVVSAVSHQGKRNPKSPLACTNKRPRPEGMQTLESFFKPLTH
In short: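 Pol eta at 10 nM preincubated with compounds 15 min at room temperature; reaction started with fluorescent substrate (50 nM final) and read kinetically at 0 and 10 min.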
Potency means the concentration at half of the fitted maximal effect; tags describe the fitted curve by direction and shape.

SMILES	Potency
Cc1ccc(C(=O)/C=C/c2cc(Br)cc(Br)c2O)o1	active: 50.1 µM
Fc1ccc(-c2nnc(CSc3nnc(-c4cccs4)o3)o2)cc1	inconclusive: 28.2 µM [inhibitor, single point]
O=C1c2ccccc2C(=Cc2cccnc2)c2ccccc21	inactive
COc1ccc(NC(=O)Nc2ccc3c(c2)CC(=O)N([C@H](C)CO)C[C@@H](C)[C@H](CN(C)C(=O)Nc2ccccc2)O3)cc1	inconclusive: 89.1 µM [inhibitor, single point]
COC(=O)c1sccc1S(=O)(=O)N1CCN(c2ccc(Cl)cc2)CC1	inconclusive: 56.2 µM [inhibitor, partial curve, poor fit]
C=CCSC1=N/C(=C\C=C\c2ccco2)C(=O)S1	active: 3.55 µM
FC(F)(F)C1=Nc2cccc3cccc(c23)N1	active: 2.24 µM
O=S(=O)(Nc1cc2nc3ccccc3nc2n1Cc1ccccc1)c1ccc(Cl)cc1	active: 79.4 µM
O=C1/C(=C/c2ccc(O)c(O)c2)Oc2cc(O)ccc21	active: 20 µM
C=CCOC(=O)C1=C(C)N=c2s/c(=C3\C(=O)N(CC(=O)O)c4ccccc43)c(=O)n2C1c1ccc(OC)cc1 (stereo not given)	inconclusive: 79.4 µM [inhibitor, single point]
CC(=O)c1cccc(OCC(=O)N(C)CC(=O)NCc2ccco2)c1	active: 3.16 µM
CC(c1ccccc1)N(CC(=O)NC1CCCCC1)S(=O)(=O)c1cccc(C(F)(F)F)c1 (stereo not given)	inconclusive: 56.2 µM [inhibitor, partial curve, poor fit]
COc1ccc([N+](=O)[O-])cc1NC(=O)CCc1ccccc1	inconclusive: 2.82 µM [inhibitor, partial curve, poor fit]
CCOc1ccc(N(C)S(=O)(=O)c2ccc3[nH]cc(C(=O)NCC4CCCO4)c(=O)c3c2)cc1 (stereo not given)	inconclusive: 10 µM [inhibitor, partial curve, poor fit]
Cc1ccc(N2CC(C(=O)Nc3nnc(SCCC4OCCO4)s3)CC2=O)cc1 (stereo not given)	inconclusive: 35.5 µM [inhibitor, partial curve, poor fit]
O=C(CSc1nc2c(sc3ccccc32)c(=O)n1CCCN1CCOCC1)NC1CCCC1	inconclusive: 17.8 µM [inhibitor, partial curve, poor fit]
CCN(c1ccc(OC)cc1)S(=O)(=O)c1nnc(NC(=O)c2ccco2)s1	inconclusive: 44.7 µM [inhibitor, partial curve]
O=C(N/N=C/c1cn(-c2ccccc2)nc1-c1cccs1)c1ccncc1	inconclusive: 0.891 µM [inhibitor, full curve, poor fit]
C=CCN(CC=C)C(=S)NC(=O)c1ccc(C)c(Br)c1	inactive
Cc1nnc(-c2cccc(C(F)(F)F)c2)nc1N1CCOCC1	inactive

SMILES	Potency
COc1ccc2c(COC(=O)CNS(=O)(=O)c3ccc(C)c(C)c3)cc(=O)oc2c1	inconclusive: 63.1 µM [inhibitor, partial curve, poor fit]
Cc1nc2ccc(S(=O)(=O)NC(C(=O)N3CCN(c4cccc(Cl)c4)CC3)C(C)C)cc2s1 (stereo not given)	inactive
COc1ccc(/C=C2\CCC/C(=C\C=N\N(C)C)C2=O)cc1	inconclusive: 44.7 µM [inhibitor, partial curve, poor fit]
CCN(C(=O)COC(=O)c1cc2c(s1)CCC(C)C2)c1c(N)n(Cc2ccccc2)c(=O)[nH]c1=O (stereo not given)	inconclusive: 79.4 µM [inhibitor, partial curve]
COc1ccc(-c2ccc(SCC(=O)NCc3ccco3)nn2)cc1OC	inconclusive: 35.5 µM [inhibitor, partial curve, poor fit]
CC(=O)Nc1ccc(NC(=O)C(c2ccccc2)N2Cc3ccccc3C2=O)cc1 (stereo not given)	inactive
CCOC(=O)c1sc(N2C(=O)C(O)=C(C(=O)c3ccco3)C2c2ccc([N+](=O)[O-])cc2)nc1C (stereo not given)	inconclusive: 63.1 µM [inhibitor, partial curve, poor fit]
Cn1c(N/N=C2\CCCc3ccccc32)nc2c1c(=O)n(Cc1ccccc1)c(=O)n2C	inconclusive: 4.47 µM [inhibitor, full curve, poor fit]
COc1ccc(S(=O)(=O)N2CCC(N3CCCC3)CC2)cc1	inactive
CC1CCN(S(=O)(=O)c2cc(C(=O)NCc3ccccc3)n(C)c2)CC1	inactive
CC1CCN(S(=O)(=O)c2ccc3[nH]c(=O)c(=O)[nH]c3c2)CC1	inactive
CCn1c(SCC(=O)Nc2nc3ccccc3s2)nnc1-c1ccc(OC)cc1	inconclusive: 22.4 µM [inhibitor, partial curve]
CCC(C(=O)O)n1c2ccccc2c2cn[nH]c(=O)c21 (stereo not given)	inconclusive: 28.2 µM [inhibitor, full curve]
Cc1c(C)n(C(=O)CSc2nc3ccccc3[nH]2)c2ccccc12	inconclusive: 79.4 µM [inhibitor, partial curve, poor fit]
Cc1c(C)c2ccc(OCC(=O)Nc3ccc(S(N)(=O)=O)cc3)c(C)c2oc1=O	inconclusive: 20 µM [inhibitor, partial curve, poor fit]
COc1ccc(O)c(/C=N/NC(=O)c2ccc(CSc3nc(C)cc(C)n3)cc2)c1	inconclusive: 31.6 µM [inhibitor, single point]
CN(C[C@H](Cc1ccccc1)N(C[C@H](Cc1cccc2ccccc12)N(CCc1ccccc1)N=O)N=O)N=O	inconclusive: 35.5 µM [inhibitor, partial curve, poor fit]
COc1ccc(OC)c(NC(=O)CSc2ccc(-c3ccco3)nn2)c1	inconclusive: 17.8 µM [inhibitor, full curve, poor fit]
N#CC1=C(N)Oc2cc(N)ccc2C1c1cccnc1 (stereo not given)	inconclusive: 20 µM [inhibitor, partial curve, poor fit]
CCOCCCNC(=O)c1c[nH]c2ccc(S(=O)(=O)Nc3cccc(OC)c3)cc2c1=O	inconclusive: 28.2 µM [inhibitor, single point]
